# In article PMC5836133:
# Some of the results follow. At the low end of the ranking the order means little.
# Test system: T1, GST-NbGlk1(82-244)
# T1 sequence: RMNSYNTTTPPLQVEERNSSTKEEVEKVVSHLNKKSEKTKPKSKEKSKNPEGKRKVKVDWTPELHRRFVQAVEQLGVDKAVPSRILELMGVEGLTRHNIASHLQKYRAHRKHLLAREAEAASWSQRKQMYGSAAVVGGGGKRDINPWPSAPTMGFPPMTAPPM
# Experiment: protein-binding microarray;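 also: rank-based score ranging −0.5 to +0.5 with E above 0.45 taken as significant binding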
# Details: NbGlk1 is a Golden2-like transcription factor of Nicotiana benthamiana; high values mean tight binding; most listed sequences are background and not binding sites; double strand, one strand shown
row,Sequence,binding signal [E-score]
1,AACGGGGA,-0.0842
2,ACCAGGAC,-0.204
3,ACTCGGTC,-0.191
4,ACCCGGTG,-0.181
5,ACAAAGAC,-0.00264
6,AACTTTTC,0.0426
7,ACAACAGG,-0.0462
8,ACGACACA,-0.176
9,ATTTACCC,0.0626
10,ACTCCCCT,-0.183
11,AAAGTATT,0.0387
12,ACAAAACG,-0.0521
13,AGCTGTAT,-0.00942
14,ATCGCCGG,0.102
15,ACGAAGGA,-0.0776
16,ACTAGCGC,-0.222
17,ACTATTTG,0.113
18,ATCTGACA,0.23
19,ATTCCCCG,0.32
20,AGTTCCTA,-0.0468
21,AAGACATA,-0.0176
22,AAATACCT,0.116
23,ACATCTTG,-0.0609
24,ACACGTAG,0.0256
25,ACTGCTGG,-0.112

row,Sequence,binding signal [E-score]
1,CACCTAGG,-0.103
2,ATAGTCAT,-0.146
3,AGTCCTTA,-0.168
4,ACTCATAC,-0.0267
5,ATGCTTCA,-0.16
6,AGAAAAGG,-0.0175
7,AACGGAAG,-0.166
8,ACGTCTAA,0.0547
9,AACTACAC,-0.0552
10,CACCTGGG,-0.31
11,AATGAGCC,-0.221
12,CACGAGTA,-0.00253
13,ACTATACT,-0.0777
14,ATGCAAAC,-0.0886
15,AAGATTCC,0.46
16,ACAACAGA,-0.00974
17,ATAGTACC,-0.25
18,AAGCGATC,0.294
19,ATCAAAAT,0.268
20,ATGTCACC,-0.127
21,AGCAATTG,0.0761
22,AGCATGTG,-0.0902
23,ACGAAGGG,-0.223
24,AAATGGAC,-0.136
25,AATCGCCT,0.225

row,Sequence,binding signal [E-score]
1,ACATTGCT,-0.0139
2,ATGCCCTC,-0.302
3,ACAATCCC,0.276
4,CAGCCATC,-0.315
5,AGAACAAC,-0.0788
6,AACTTAGC,0.035
7,ACTTGCTC,-0.089
8,ATGAGAAA,0.109
9,CAATGGTA,-0.0913
10,ACAATATG,0.083
11,AATAGGCA,-0.194
12,AGCGATCA,0.185
13,ATGCGTGG,-0.31
14,AAGGCCCT,-0.361
15,ATGACTCA,-0.0643
16,AGGTTAAC,-0.0532
17,ACTTAGCC,-0.181
18,CACTTAAA,-0.112
19,AGCTGCGG,-0.244
20,CAAGCCGA,-0.152
21,ACGCACAC,-0.0526
22,ACGTTCTA,0.0763
23,ACGTGTCT,-0.0184
24,AACCCAAA,-0.0522
25,CACACCGG,-0.133

row,Sequence,binding signal [E-score]
1,AACCCGCG,-0.022
2,AACCAGCG,-0.0998
3,AGATATGC,0.415
4,AAAGGCGC,-0.132
5,ACGCTCTG,-0.128
6,AACGTAGT,-0.0218
7,ATATGTGA,0.164
8,ATCTAATA,0.26
9,ACGTTAGA,0.0229
10,AAGCTGTG,-0.139
11,AAGTACTA,0.0583
12,ATTTAGGA,0.0838
13,AATCTGCG,0.444
14,AGCGAAAT,0.343
15,ATAGTAGA,0.201
16,AAGCCGCA,-0.14
17,AAGTGCAT,-0.0915
18,CACAGCGG,-0.0216
19,AACGCAGC,-0.0481
20,AATAAGAA,0.172
21,ACGTCAAC,-0.103
22,AGCGAACG,-0.187
23,ATAGGGTG,-0.047
24,ATAGCGGG,-0.162
25,ATATAACG,0.166

row,Sequence,binding signal [E-score]
1,ATGAAACG,0.11
2,AGAAGGTG,-0.0433
3,AATCAACG,0.247
4,CAATACGC,-0.0773
5,ACGCATGC,-0.146
6,AATAAAAT,0.285
7,ACGCGAAA,0.104
8,AGGGGGAA,0.0279
9,AGAGGAGC,-0.278
10,ATGACGAA,-0.0902
11,CACCGCAG,-0.0367
12,ATGTAGGG,-0.0653
13,AGAAAGAA,0.0869
14,ACGATACC,0.0532
15,ACGCAGAC,-0.0686
16,AAGCCATT,-0.154
17,ATTAAGAC,-0.0138
18,ACTGTCTA,-0.0303
19,AGCACATA,0.0373
20,AAGGGCTA,-0.102
21,ATTGGTAG,-0.000102
22,AATTTAGT,0.14
23,ATTCGTAC,0.144
24,ACTCGTCG,-0.172
25,AATATACC,0.14

row,Sequence,binding signal [E-score]
1,CAACCTCA,-0.0945
2,AACCAGCA,0.0442
3,CACGACTG,-0.101
4,AGAGTGGA,0.0598
5,ACGAGTCC,-0.249
6,AGGGCGGC,-0.214
7,ATCAGAAA,0.272
8,ATTAGGTC,-0.0495
9,AGCCGATC,0.0201
10,AGAAAGGC,-0.159
11,AATACTAG,0.0371
12,AGCCAAAA,3.22e-05
13,CAATGCGC,-0.116
14,AAGTAGCC,-0.207
15,AGTAACAC,-0.128
16,AGTTGTGC,-0.0958
17,AAAACTTC,-0.0204
18,AAGCGCAG,-0.0537
19,ATGACGCG,-0.133
20,ACCGAAGT,-0.0945
21,ACTTTTTC,0.00712
22,AATGAAAC,0.0492
23,AACCAAGC,-0.0491
24,AAAGGTGG,-0.181
25,AAACCTCG,-0.0195

row,Sequence,binding signal [E-score]
1,ATTCCTAC,0.176
2,AGTCAGCC,-0.279
3,AGACCCCG,-0.193
4,AGGAATCC,0.422
5,AGGTTGGC,-0.206
6,AGCACTAG,-0.14
7,AACGGTAG,-0.125
8,CACGAGGC,-0.299
9,AACTGTGG,-0.0788
10,ACTACTCC,-0.0786
11,AGACCATG,-0.182
12,CAAGCCAA,-0.138
13,AATATGAT,0.222
14,AAATGTCT,-0.0382
15,AATGACTG,-0.0618
16,ATGTGTGG,-0.0679
17,AGGAGACT,-0.3
18,ATGAGCTG,-0.102
19,AAGGAGCT,-0.218
20,ACGGACAT,-0.155
21,ACTTGACA,-0.0266
22,AATGAAGA,0.13
23,AATTCCCC,0.225
24,CAGAGGCA,-0.117
25,AGAGTAGC,-0.169

row,Sequence,binding signal [E-score]
1,AAGATCTG,0.362
2,CAGCCTAA,-0.148
3,AAAGAATC,0.432
4,AGTCACGC,-0.279
5,ACGTTCCG,-0.0344
6,CAGAGGTC,-0.302
7,AGAGGCTA,-0.143
8,AGCTTTAA,-0.152
9,AAGTCGCT,-0.145
10,AGGACAGG,-0.155
11,CAAAGTGA,0.0633
12,ACATATAG,-0.135
13,AGCGACTG,-0.178
14,ATATACCA,0.168
15,ACATGATA,0.198
16,ATCTTGGA,0.257
17,AGTTCTAC,-0.0788
18,AATCTTGA,0.377
19,ATACCGGG,0.0149
20,AACCAACG,-0.0567
21,AGGGGCTA,-0.192
22,ACAGGTTG,-0.102
23,AAGCGGGA,-0.0986
24,ATGCTAAG,0.0345
25,AACGAGTT,-0.0852

row,Sequence,binding signal [E-score]
1,CAACGCTG,-0.136
2,CACACTAA,-0.0296
3,AACTGATT,0.296
4,AATACCAG,-0.0134
5,ATCGGATC,0.275
6,ATCAATTG,0.1
7,AAATGAAG,0.0114
8,AGCACCAG,-0.267
9,ACTTTGCT,-0.0183
10,AATTCCTG,0.0736
11,ACGGAAAA,0.159
12,AAAGCGGT,0.00106
13,AGGTGTCG,-0.276
14,AAAGTGAA,-0.0347
15,CACTCGAG,-0.149
16,AGGGAGAC,-0.261
17,ACCTGGGA,-0.296
18,ACCACGCA,-0.185
19,ATCAGGGC,0.00809
20,ATGGCGAC,-0.202
21,AACCCCGG,-0.287
22,ATTCCCAC,0.332
23,AGACGGCT,-0.292
24,ACAAGACA,-0.151
25,AGTTCCAC,-0.283

row,Sequence,binding signal [E-score]
1,CACGGGGA,-0.11
2,AACCCCGC,-0.172
3,ATAACTGG,-0.0397
4,CAAACTTG,-0.0833
5,ACTGCTAA,-0.000472
6,AGTAGTTA,0.171
7,ACATGTAG,-0.0749
8,CAAATCTA,0.412
9,AGGCATTC,-0.196
10,AGGGCCCC,-0.222
11,ACGCGATG,0.0544
12,CAAAGGAG,-0.115
13,ACACCGTG,-0.226
14,ACGGACCA,-0.24
15,ACACTGAA,0.0195
16,ATACGGCG,0.101
17,AGAGCGGG,-0.171
18,ACCAGACA,-0.191
19,AAGTACTT,0.124
20,AGGAGCTG,-0.18
21,ATTACCAA,0.314
22,AGGACATA,0.00644
23,ACAACTTG,-0.0194
24,ACCAATAG,-0.119
25,CACAACTG,-0.0288

row,Sequence,binding signal [E-score]
1,AACGGCGA,0.00444
2,AAACATAA,0.143
3,AATTTCCT,0.255
4,AGTAGATA,0.303
5,AAACATCG,0.0606
6,AAATGTAG,0.0195
7,AATCTTAA,0.411
8,AAGAGTCT,-0.287
9,ACGGAACG,-0.157
10,AGCCAGTA,-0.099
11,CACGTTGG,-0.288
12,ATGCCGAC,-0.154
13,ACCTTCCC,-0.216
14,ACCGTAGG,-0.0617
15,ATGAGCTC,-0.257
16,AGCAATAT,0.299
17,AATCTTGC,0.348
18,AGCGGTGG,-0.152
19,AGTCATGG,-0.141
20,ACAAGCGA,0.112
21,ACCGTAGC,-0.186
22,AGATTGCC,0.448
23,AGTGGTGA,0.0524
24,AGCTGAAG,-0.193
25,ACACCAGA,0.0913

row,Sequence,binding signal [E-score]
1,AGTCAAGG,-0.224
2,AGAAAAAC,-0.019
3,ACTTCTGA,0.122
4,ACGGACTC,-0.258
5,AAGGGGCG,-0.223
6,ACCTCGGA,-0.0862
7,ATTACAGG,0.138
8,ACCCATCG,-0.0461
9,AAGGCTGG,-0.24
10,AGAAGTGC,-0.176
11,AGACAACT,-0.174
12,AACACGCG,-0.105
13,ACACAGGA,-0.031
14,ACATAAGT,-0.0922
15,AGTGTGTC,-0.0677
16,AGTGCAAG,0.125
17,ACGGCCCT,-0.159
18,AACTTACC,-0.0322
19,AGTCGCTA,-0.0535
20,AAGCAGGG,-0.165
21,AGGCCGCA,-0.259
22,AATCCGTA,0.337
23,AGTTGATA,0.158
24,ACAGGCGC,-0.187
25,AAGTCATA,0.018

row,Sequence,binding signal [E-score]
1,CAATGTAC,-0.0483
2,ACGGTAAC,-0.0942
3,CAGCGATA,0.0548
4,CACAGTGG,-0.166
5,AGCGGGTG,-0.127
6,ACAGCGAC,-0.185
7,ATTGATTG,0.133
8,AATAAAAA,0.247
9,ACTCGACT,-0.0799
10,AACTAGTG,-0.164
11,AATGTTGT,0.0611
12,ACCAGTCA,-0.27
13,AAGCCCAT,-0.128
14,ATAGAAGG,-0.161
15,CACACACA,0.0162
16,ATGGAAAA,0.0125
17,ACTCATCA,-0.0329
18,AGGCCGCG,-0.187
19,AGGGGTCC,-0.322
20,AAACGTCA,-0.00469
21,AGATCACC,0.157
22,ATGCAGTC,-0.25
23,ATCAGTAA,0.214
24,AAGCTCGA,-0.203
25,ACTAGCCT,-0.175

row,Sequence,binding signal [E-score]
1,ATTACAGA,0.295
2,AAGTTGTG,-0.0923
3,AAGTCGCC,-0.285
4,ATACGTCC,0.0273
5,AACAATTC,0.147
6,ACATCGGG,-0.0452
7,AACGAACG,-0.0266
8,ACATAACA,-0.0944
9,ACTCACTG,-0.185
10,AACGTTCC,-0.0248
11,AGTATCTC,0.235
12,ACAATATC,0.387
13,AGATCACT,0.0722
14,ACTGTGAA,0.0939
15,CAATCGGA,0.227
16,AAGGACCG,-0.247
17,AAGACCAC,-0.235
18,ACGACCAC,-0.236
19,ATCTGGCA,0.162
